ChEMBL document CHEMBL4888484, “Replenishing the malaria drug discovery pipeline: Screening and hit evaluation of the MMV Hit Generation Library 1 (HGL1) against asexual blood stage Plasmodium falciparum ,using a nano luciferase reporter read-out” (2022)
Where “and” joins values, the source holds several entries; their conditions need not be identical. Identical values can stand only once. Hit rate of the full screen: of about 4,800 compounds, about 410 (8.5%) showed an effect of 50% or more. The list shows a part of the results.

System: Plasmodium falciparum
Test: Confirmatory screen in NF54 pLDH assay, in single point, at 2uM, 72h
Type: functional, Erythrocyte
Conditions: timepoint 72 hour

Structure (SMILES) | % Inhibition | % Inhibition (2 µM)
CCO[C@@]1(c2ccccc2)NC(=O)c2cc3c(cc21)OCCO3 | -18% | –
Cc1cc(S(=O)(=O)NC[C@H]2CCCCN2)sc1C | -6% | –
Oc1nccc(C(F)(F)C(F)(F)F)n1 | -3% | –
O=C(/N=C(/c1ccccc1)N1CCCCC1)C(F)(F)C(F)(F)C(F)(F)C(F)(F)C(F)(F)C(F)(F)F | – | 1% and 0%
CC1CC(=O)N(CC(=O)N2CCCCCC2)C(=O)C1 | -9% | –
COc1ccccc1C1c2[nH]c3ccccc3c2C[C@H]2C(=O)N(CC(O)c3ccccc3)CC(=O)N12 (stereo not given in full) | 12% | –
Cc1nn(Cc2cccc(C(F)(F)F)c2)c(=O)n1-c1ccc(OCc2ccccc2)cc1 | -11% | –
O=C(OCc1ccc(C(F)(F)F)nc1)c1ccc(C(F)(F)F)nc1 | 14% | –
COC1CCCC1NC(=O)Nc1ncc(Br)cc1C (stereo not given) | 79% | –
Cc1nc(Nc2ccc(F)cc2)nc2c1ncn2-c1ccc(F)cc1 | -14% | –
Cc1cc(NC(=O)C(=O)NC2CC(C)CC(C)(C)C2)n(-c2nc3c(c(=O)[nH]2)CCC3)n1 (stereo not given) | 84% | –
CC(C)(NCc1ccccc1Cl)C(=O)O | 13% | –
Cc1ccsc1CNCc1ccc2c(c1)OCO2 | -16% | –
COc1cc(OC)c(OC)cc1CNC(C)C | 5% | –
O=C1NCCC[C@@H]1NS(=O)(=O)N1CCc2ccccc2C1 | 3% | –
Cc1ccc2c(c1)c1c(n2S(=O)(=O)c2ccc(C(C)(C)C)cc2)CCCN(C)C1 | 94% | –
CC(C)CC1NC2(C(=O)N(Cc3ccc(F)cc3)c3ccccc32)C2C(=O)N(c3ccccc3)C(=O)C12 (stereo not given) | 1% | –
COc1ccc(-n2cnc3cc(NCc4cccs4)ccc32)cc1 | -6% | –
Cc1nn(-c2nncc(-c3ccc(Cl)cc3)n2)c2c1[C@@H](c1cc(F)ccc1F)CC(=O)N2 | 18% | –
CN1CCN(C(=O)[C@@H]2Cc3ccccc32)CC1 | 3% | –
COc1ccc(CC(=O)N2CCC3(CC[C@@H]3O)CC2)cc1Cl | 2% | –
COc1cc(-c2nnc3n2CC(C)(C)CN3)cc(OC)c1OC | 14% | –
CCN(CC)C(=O)[C@@H]1CCCN1C(=O)CCCc1ccccn1 | -11% | –
CCN1C(=O)Cc2cc(NS(=O)(=O)Cc3ccccc3)ccc21 | 12% | –
CNC(=NCc1ccc(-c2ccc(OC)cc2)s1)NC | 7% | –
CN1CCC(N2CCN(Cc3ccc4cc(O)ccc4c3)CC2)CC1 | 92% | –
O=C1O[C@@H](CO)CN1c1cccc(F)c1 | -2% | –

Structure (SMILES) | % Inhibition | % Inhibition (2 µM)
O=C(Nc1ccccc1)Nc1cnc(-n2ccnc2)nc1 | 30% | –
CCc1ncsc1C(=O)OCC1(C#N)CCOCC1 | -2% | –
COc1ccc([C@H](NC(=O)CCc2ccccc2)c2c(O)ccc3ccccc23)cc1 | -6% | –
COCC(=O)NC1CCC(NC(=O)c2csc(COc3cc(C)ccc3C(C)C)n2)CC1 (stereo not given) | 7% | –
CC(C)(CO)NCc1ccccc1Cl | 0% | –
COc1ccc(S(=O)(=O)Nc2c(C)nc3ncnn3c2O)cc1 | -4% | –
O=C(N1CCC(O)CC1)C(F)(F)Cl | 10% | –
Cc1ccc(NC(=O)c2c(C)nc3sc(C(=O)NCc4ccccc4)c(N)c3c2-c2cccs2)c(C)c1 | 11% | –
COc1ccsc1S(=O)(=O)N(CCN(C)C)C1CCCC1 | -9% | –
Cc1cc(NC(=O)C(=O)Nc2cnn(CCC(C)C)c2C)n(C)n1 | -22% | –
CCCCC(=O)N1CCc2[nH]nc(C(=O)NCCc3ccc(OC)cc3)c2C1 | 2% | –
COc1ccc(CCNC(=O)CCC(=O)Nc2ccc(OCc3ccccc3)cc2)cc1OC | -7% | –
CN(Cc1cccc(OC(F)(F)F)c1)[C@H]1CCc2nn(C)c(=O)n2CC1 | 3% | –
COc1ccc(CCNC(=O)Cc2ccc3c(c2CO)OCO3)cc1OC | -21% | –
O=C(Nc1ccccc1)C(=O)Nc1ccc2ncc(Cl)n2c1 | 7% | –
Cc1cc(C(=O)N2CCCC[C@H]2c2nc(=O)[nH][nH]2)nn1C(F)F | 10% | –
CC(C)c1ccc2ncnc(N[C@H]3CCc4[nH]cnc4C3)c2c1 | 101% | –
CCOC(=O)c1nccc(C#N)c1Cl | 5% | –
O=C(Nc1ccccc1Cl)OCc1cncs1 | 9% | –
O=S(=O)(NCc1cccnc1)Oc1ccccc1O | 12% | –
Cc1c(NS(=O)(=O)c2cccc3nsnc23)c(-n2cnnc2)nn1C | 3% | –
CC(Oc1ccc2c(c1)C(c1ccccc1)N(Cc1ccccc1F)CC2)C(=O)NC1CC1 (stereo not given) | 50% | –
Cc1cc(-c2ccc(S(=O)(=O)N3CCOCC3)s2)n[nH]1 | 7% | –
Cc1ccc(S(=O)(=O)N2CC[C@H](CC(=O)NCc3ccccc3)C2)cc1C | -9% | –
O=C1NCCC[C@@H]1NC(=O)[C@@H]1CN(C(=O)C2CCCCC2)CCN1C(=O)Nc1ccccc1 | 12% | –
CC1=NN(C(=O)Cc2ccc(Cl)c(O)c2)C(=O)C1 | 11% | –
Cc1ccc(S(=O)(=O)Nc2cccc(-c3csc(C)n3)c2)cc1 | 10% | –

Structure (SMILES) | % Inhibition | % Inhibition (2 µM)
CNC(=O)CCS(=O)(=O)CCCC(=O)Nc1c(C)cc(C)cc1C | -15% | –
O=C(c1ccccc1)n1c(=O)n(C(=O)c2ccccc2)c2ccccc21 | 7% | –
CC(=O)N1CCc2sc(C(=O)N3CCN(c4ccccc4F)CC3)cc2C1 | 6% | –
Cn1nnc(Cn2nnc(-c3ccccc3)n2)n1 | 0% | –
O=S(=O)(CCCc1cn[nH]c1)[C@H]1CCc2c(F)cc(F)cc21 | 13% | –
COc1ccc(CC(=N)Nc2cc3cc(OC)c(OC)cc3c(Cc3ccc(OC)c(OC)c3)n2)cc1OC | 89% | –
COc1nc(-c2cccc(C(=O)N3C[C@@H]4CC[C@H](C3)C(=O)N4)c2)ncc1F | 85% | –
COc1cccc(C(=O)N2CCCO[C@H](C(C)C)C2)c1 | -14% | –
CC(C)(C)OC(=O)NCC#Cc1cccc(F)c1 | -19% | –
COc1ccc2[nH]c(-c3nnc(Cn4c(C)cc5ccccc54)s3)cc2c1 | 7% | –
CNS(=O)(=O)c1ccc(NCc2nnc3ccccn23)c(F)c1 | 6% | –
C[C@](O)(CNC(=O)Cn1nc2ccccn2c1=O)c1cccs1 | -1% | –
Cc1ccc(CC[C@H]2Nc3ccccc3C(c3ccccc3)(c3ccccc3)O2)o1 | 66% | –
C=CCCS(=O)(=O)NCc1ccncc1 | -10% | –
COc1ccc2cc3n(c2c1)C[C@](C(=O)NC1CCCCCC1)(c1ccccc1)N(Cc1ccccc1F)C3=O | -26% | –
Cc1ccc(S(=O)(=O)N(CC(=O)N[C@@H](C)c2ccccc2)c2cccc(Br)c2)cc1 | 11% | –
CCc1cc(=O)[nH]c(-n2nc(C3CC3)cc2NC(=O)C2CCCCC2)n1 | 87% | –
Nc1ncn(C(=O)c2ccc(Cl)cc2)n1 | -8% | –
CC(C)c1nnc(CN2CC[C@H](OC(F)F)C2)o1 | 8% | –
OC[C@H](Nc1ncncc1Br)c1ccccc1F | 10% | –
COc1ccc(-c2oc(C)c(C)[n+]2[O-])cc1OC | -3% | –
Cn1c(-c2ccc(Br)cc2)c[n+](CC(=O)c2ccc(Br)cc2)c1N | -4% | –
N#Cc1ccc(NCCc2ccc(O)cc2)cn1 | -13% | –
CC(NC(C)C1CN(C(=O)OC(C)(C)C)C1)c1ccccc1Br (stereo not given) | 8% | –
CN(C)Cc1ccc(NC(=O)c2cc(F)cc3c(=O)c4cc(F)ccc4[nH]c23)cc1 | 95% | –
CCc1c(C)nn2c(c1C)c(-c1ccccc1)[n+]1c(C)c(CC)c(C)nc21 | 49% | –
COCc1nncn1C1CN(C(=O)Cc2cc(OC)cc(OC)c2)C1 | -6% | –

Structure (SMILES) | % Inhibition | % Inhibition (2 µM)
C[n+]1ccccc1/C=C/c1c[nH]c2ccccc12 | 81% | –
Cc1ccc(NC(=O)Cn2cnc3nc(N(C)Cc4ccccc4)sc3c2=O)c(Br)c1 | -10% | –
CC[N+](CC)(CC(=O)OC1CC2CCC1(C)C2(C)C)CC(=O)OC1CC2CCC1(C)C2(C)C (stereo not given) | 92% | –
CCCC[C@H](CC)C(=O)NC1CCCCC1 | 8% | –
O=C(CCC1CCCC1)N1CCC(N2CCCCCC2)CC1 | 12% | –
Cc1ncsc1-c1nc(CNc2ccc(C(F)(F)F)cc2Cl)no1 | -15% | –
CC(C)c1nc(O)cc(CN2CCCCC2)n1 | 4% | –
COc1ccc(OC)c(NC(=O)c2c(C)noc2-c2ccc(Cl)cc2)c1 | 5% | –
Cc1cc(O)nc(CN2CC(C)CC(C)C2)n1 (stereo not given) | 0% | –
CC(C)(C)OC(=O)N1CCC(Cn2nccc2N)CC1 | -22% | –
COc1ccc(CN(Cc2ccncc2)CC2CCN(C3CCN(C)CC3)CC2)c(F)c1 | 93% | –
CCC(=O)OC1(C#CCOc2ccc(OC)cc2)CCN(C)CC1 | 9% | –
CCOc1cc(C(=O)N[C@H]2CCS(=O)(=O)C2)cc2occc12 | 8% | –
S=c1oc2ccccc2n1CNC1CCCCC1 | 1% | –
COCc1nn2c3c(nnc2c1-c1ccccc1)C(=O)CC(C)(C)C3 | 11% | –
CC1(C)C[C@@H](NC(=O)c2cc3[nH]cnc3cc2F)CCO1 | 11% | –
O=C(CCn1nc(-c2ccc(Br)cc2)ccc1=O)NCc1ccc2c(c1)OCO2 | -6% | –
CCc1ncsc1C(=O)N(C)[C@@H]1CCC[C@H]1O | -17% | –
O=C1CN(C(=O)c2ccc(-c3ccccc3F)o2)c2ccccc2N1 | -10% | –
CC(C)c1ccc(S(=O)(=O)Nc2ccc3nc(NC(=O)c4ccccc4)sc3c2)cc1 | 6% | –
CCc1ccc(C(NC(=O)N2CC3C4CCC(O4)C3C2)C(C)(C)C)o1 (stereo not given) | -4% | –
C[C@H]1CCCCN1S(=O)(=O)c1ccc(-c2ccc(Cl)cc2)cc1 | 3% | –
CN(C(=O)Cc1cc(Br)ccc1F)c1nncn1C | 14% | –
C[C@@H]1C[C@@H](Nc2ccccc2)c2ccccc2N1C(=O)COc1ccc(Br)cc1 | 10% | –
